Assay results taken from article PMC9521807 (PLoS Pathogens, 2022).

Target: T1, OsRMC (Oryza sativa, UniProt Q5I7E9)
T1 sequence (Q5I7E9 24-258): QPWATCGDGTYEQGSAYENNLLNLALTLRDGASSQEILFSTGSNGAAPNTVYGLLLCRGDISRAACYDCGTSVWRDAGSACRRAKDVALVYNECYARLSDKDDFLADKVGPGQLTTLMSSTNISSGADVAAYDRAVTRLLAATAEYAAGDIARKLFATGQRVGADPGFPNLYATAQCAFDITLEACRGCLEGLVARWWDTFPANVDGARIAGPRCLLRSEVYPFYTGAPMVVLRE
Experiment: mannose-agarose pull-down, anti-Flag immunoblot
Settings: mannose immobilised on agarose

For `OC[C@H]1OC(O)[C@@H](O)[C@@H](O)[C@@H]1O` (stereo partly shown) [mannose], the “mannose-agarose pull-down, anti-Flag immunoblot” value was “Incubation of OsRMC with mannose-agarose resulted in recovery of OsRMC in the bound fraction”.
